Experimental data published in the CheMixHub viscosity set.
The source gives many values for each of these; only a part stands here.

Assay: xn = mol fraction of the nth substance listed
Conditions: 318.15 K, 101.33 kPa

CC(N)CN (centres undefined) + OCCCCO
Conditions	viscosity [mPa·s]
x2 = 0.2606	4.01
x2 = 0.3069	5.24
x2 = 0.3541	6.72
x2 = 0.4022	8.58
x2 = 0.4513	10.55
x2 = 0.5013	13.95
x2 = 0.5523	16.78
x2 = 0.6043	21.01
x2 = 0.6574	23.69
x2 = 0.7116	27.62
x2 = 0.7669	29.89
x2 = 0.8233	31.77
x2 = 0.881	32.25
x2 = 0.9399	32.15
